Test results: PubChem BioAssay (NCATS)
“And” between values parts separate entries of the source, which are not always exact repeats. Equal values may be shown once. This list was built around the results that the source calls inconclusive (neither active nor inactive); the mix of calls is not that of the screen. For part of these data: Where the call is inconclusive, the potency comes from a doubtful curve fit. The source made the active and inactive calls. Calls come from the whole dose curve; as a rule, active = well fitted curve in the direction sought with a large enough effect; inconclusive = small, poorly fitted or top-dose-only effect, or another doubt; inactive = no such curve, though single readings can be large; an effect the other way counts as inactive or inconclusive.

Legend:
[1] = P-glycoprotein substrates identified in KB-8-5-11 adenocarcinoma cell line, qHTS therapeutic library screen (AID 1346987); settings: KB-8-5-11 (P-gp overexpressing) viability, CellTiter-Glo, 72 h; series mostly up to 44.5 µM; note: nearly all actives have a fitted effect of over 65% in size
Procedure, shortened: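 KB-8-5-11: colchicine-selected sub-line of KB-3-1 over-expressing P-gp; assay medium lacked colchicine. 72 h drug exposure at 37 degree C, CellTiter-Glo.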

[2] = Primary qHTS for inhibitors of nuclear receptor binding SET domain protein 2 (NSD2) in an RCH-ACV wild type WT cells (2C) (AID 1645877); settings: RCH-ACV NSD2 WT (2C) viability, CellTiter-Glo, 72 h; activity change, negative = cell killing: at 44.9 µM (top of the series); series mostly up to 44.9 µM; note: nearly all actives have a fitted effect of over 70% in size
CRL-7250 = normal cell line; test: Cytotoxic Profiling of Annotated Libraries Using Quantitative High-Throughput Screening (AID 1296008); settings: Five cell lines viability, CellTiter-Glo ATP luminescence, 48-72 h; max response: stronger effect = lower value; note: nearly all actives have a fitted effect of over 60% in size; for max response: % is set by controls: 0 for no effect and ±100 for the full control effect
Procedure, shortened: (§1)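 Compounds were pin-transferred onto cells and incubated 48 or 72 hr at 37 degree Celsius, 95% humidity. CellTiter-Glo was added, plates sat 10 min at room temperature, then ATP-coupled luminescence was imaged as the viability read-out.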

HEK293 = test: as above; settings: Five cell lines viability, CellTiter-Glo ATP luminescence, 48-72 h; max response: stronger effect = lower value
Procedure, shortened: as §1

HaCat = test: as above; settings: Five cell lines viability, CellTiter-Glo ATP luminescence, 48-72 h; max response: stronger effect = lower value
Procedure, shortened: as §1

KB-3-1 = test: as above; settings: Five cell lines viability, CellTiter-Glo ATP luminescence, 48-72 h; max response: stronger effect = lower value
Procedure, shortened: as §1

NIH3T3 = test: as above; settings: Five cell lines viability, CellTiter-Glo ATP luminescence, 48-72 h; max response: stronger effect = lower value
Procedure, shortened: as §1

CAOV3 = test: Primary qHTS to identify gynecologic anti-cancer compounds using libraries of approved drugs and bioactive compounds (AID 1345084); settings: Gynecologic cancer cell panel viability, ATPlite luminescence, 48 h; series mostly up to 57.5 µM; note: nearly all actives have a fitted effect of over 55% in size; for activity change, negative = cytotoxicity: % is set by controls: 0 for no effect and ±100 for the full control effect
Procedure, shortened: (§2)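 48 h compound exposure at 37 C, 5% CO2; five-point qHTS. ATPlite luminescence readout of cell ATP.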

SKOV3 = test: as above; settings: Gynecologic cancer cell panel viability, ATPlite luminescence, 48 h; series mostly up to 57.5 µM
Procedure, shortened: as §2

Tov-21-G = test: as above; settings: Gynecologic cancer cell panel viability, ATPlite luminescence, 48 h; activity change, negative = cytotoxicity: at 57.5 µM (top of the series)
Procedure, shortened: as §2

Es-2 = test: as above; settings: Gynecologic cancer cell panel viability, ATPlite luminescence, 48 h; series mostly up to 57.5 µM
Procedure, shortened: as §2

Hek293T = test: as above; settings: Gynecologic cancer cell panel viability, ATPlite luminescence, 48 h, control line for the selectivity index; series mostly up to 57.5 µM
Procedure, shortened: as §2

OV90 = test: as above; settings: Gynecologic cancer cell panel viability, ATPlite luminescence, 48 h; series mostly up to 57.5 µM
Procedure, shortened: as §2

PA-1 = test: as above; settings: Gynecologic cancer cell panel viability, ATPlite luminescence, 48 h; series mostly up to 57.5 µM
Procedure, shortened: as §2

C33A = test: as above; settings: Gynecologic cancer cell panel viability, ATPlite luminescence, 48 h; series mostly up to 57.5 µM
Procedure, shortened: as §2

CASKI = test: as above; settings: Gynecologic cancer cell panel viability, ATPlite luminescence, 48 h; activity change, negative = cytotoxicity: at 57.5 µM (top of the series)
Procedure, shortened: as §2

HeLa = test: as above; settings: Gynecologic cancer cell panel viability, ATPlite luminescence, 48 h; series mostly up to 57.5 µM
Procedure, shortened: as §2

JEG-3 = test: as above; settings: Gynecologic cancer cell panel viability, ATPlite luminescence, 48 h; series mostly up to 57.5 µM
Procedure, shortened: as §2

Tov112D = test: as above; settings: Gynecologic cancer cell panel viability, ATPlite luminescence, 48 h; activity change, negative = cytotoxicity: at 57.5 µM (top of the series)
Procedure, shortened: as §2

[3] = Primary qHTS for inhibitors of nuclear receptor binding SET domain protein 2 (NSD2) in an isogenic RCH-ACV NSD2 p.E1099K mutant (9B) (AID 1645876); settings: RCH-ACV (leukaemia line) NSD2 E1099K (9B) viability, CellTiter-Glo, 72 h; series mostly up to 44.9 µM; note: nearly all actives have a fitted effect of over 70% in size
Potency is the fitted concentration of half-maximal effect; tags give direction and shape of the fitted curve.

C=C1C(=O)O[C@@H]2[C@H]1[C@H](O)C[C@]1(C)[C@@H](O)CC=C(C)[C@@H]21
inconclusive: Potency [1] 20.6 µM [inhibitor, single point] | Potency (CRL-7250) 20.6 µM [inhibitor, single point] | Potency (HEK293) 23.1 µM [inhibitor, single point] | Potency (HaCat) 25.9 µM [inhibitor, single point] | Potency (KB-3-1) 29.1 µM [inhibitor, single point] | Potency (NIH3T3) 18.4 µM [inhibitor, single point] | Potency (CAOV3) 22.4 µM [cytotoxic, single point] | Potency (SKOV3) 17.8 µM [rising, partial curve, poor fit] | Potency (Tov-21-G) 35.5 µM [cytotoxic, single point]
active: Potency [2] 7.28 µM

OCCN1CCN(CC/C=C2/c3ccccc3Sc3ccc(C(F)(F)F)cc32)CC1
inactive: max response (HaCat) -11.5%
inconclusive: Potency (CRL-7250) 21.1 µM [inhibitor, single point] | Potency (HEK293) 33.5 µM [inhibitor, single point] | Potency (KB-3-1) 29.1 µM [inhibitor, single point] | Potency (NIH3T3) 29.9 µM [inhibitor, single point] | Potency (CAOV3) 35.5 µM [cytotoxic, single point] | Potency (Es-2) 39.8 µM [cytotoxic, single point] | Potency (Hek293T) 25.1 µM [cytotoxic, single point] | Potency (PA-1) 39.8 µM [cytotoxic, single point] | Potency (SKOV3) 39.8 µM [cytotoxic, single point]
active: Potency (OV90) 10 µM

Cc1cccc(C)c1-n1c(=O)c2cnc(Nc3ccc(N4CCN(C)CC4)cc3)nc2n2c3ccccc3nc12
active: Potency [1] 0.92 µM | Potency (HEK293) 0.517 µM | Potency (HaCat) 2.06 µM | Potency (KB-3-1) 0.731 µM | Potency (NIH3T3) 1.3 µM | Potency (C33A) 2.82 µM | Potency (CASKI) 14.1 µM | Potency (Es-2) 3.55 µM | Potency (HeLa) 6.31 µM | Potency (Hek293T) 3.55 µM | Potency (JEG-3) 12.6 µM | Potency (OV90) 12.6 µM | Potency (Tov112D) 8.91 µM
inconclusive: Potency (CRL-7250) 0.0517 µM [inhibitor, full curve, poor fit] | Potency (CAOV3) 14.1 µM [cytotoxic, partial curve, poor fit] | Potency (SKOV3) 14.1 µM [cytotoxic, partial curve, poor fit]

O=C(Nc1ccc2[nH]nc(-c3ccncc3)c2c1)[C@@H]1CCN(CC(=O)N2CCN(c3ccc(-c4ncccn4)cc3)CC2)C1
inconclusive: Potency (CRL-7250) 0.326 µM [inhibitor, full curve, poor fit] | Potency (HaCat) 0.082 µM [inhibitor, full curve] | Potency (KB-3-1) 16.4 µM [inhibitor, partial curve, poor fit] | Potency (NIH3T3) 1.3 µM [inhibitor, full curve] | Potency (Es-2) 11.2 µM [cytotoxic, partial curve] | Potency (HeLa) 39.8 µM [cytotoxic, single point] | Potency (OV90) 0.316 µM [cytotoxic, full curve, poor fit] | Potency (Tov-21-G) 1.78 µM [cytotoxic, full curve]
active: Potency (HEK293) 10.3 µM

CC(C)C[C@@H]1NC(=O)[C@@H](Cc2ccccc2)NC(=O)C(CCCCCC(=O)C2CO2)NC(=O)[C@@H]2CCCCN2C1=O (stereo not given in full)
inconclusive: Potency (KB-3-1) 14.2 µM [inhibitor, single point] | Potency (NIH3T3) 5.02 µM [inhibitor, partial curve] | Potency (JEG-3) 3.98 µM [cytotoxic, full curve, poor fit] | Potency (OV90) 11.2 µM [cytotoxic, partial curve, poor fit] | Potency (PA-1) 5.01 µM [cytotoxic, partial curve, poor fit] | Potency (SKOV3) 12.6 µM [cytotoxic, single point] | Potency (Tov-21-G) 11.2 µM [cytotoxic, single point]
active: Potency (CRL-7250) 3.55 µM | Potency (HEK293) 2.82 µM | Potency (HaCat) 3.17 µM | Potency (CASKI) 0.708 µM | Potency (Es-2) 2.24 µM

O=S(=O)(NCc1cccc2ccccc12)c1cc(Cl)c(Oc2cccc(N3CCNCC3)c2)s1
inconclusive: Potency (CRL-7250) 25.9 µM [inhibitor, single point] | Potency (HaCat) 29.1 µM [inhibitor, single point] | Potency (KB-3-1) 18.4 µM [inhibitor, single point] | Potency (CAOV3) 35.5 µM [cytotoxic, single point] | Potency (Es-2) 28.2 µM [cytotoxic, single point] | Potency (Hek293T) 25.1 µM [cytotoxic, single point] | Potency (PA-1) 31.6 µM [cytotoxic, single point] | Potency (SKOV3) 35.5 µM [cytotoxic, single point]
active: Potency [1] 16.4 µM | Potency [3] 7.28 µM | Potency [2] 5.78 µM | Potency (HEK293) 10.3 µM | Potency (NIH3T3) 14.6 µM

CC(=O)c1ccc2c(c1)N(CCCN(C)C)c1ccccc1S2
inconclusive: Potency [3] 23.7 µM [inhibitor, single point] | Potency [2] 23.7 µM [inhibitor, single point] | max response (CRL-7250) -59.9% [inhibitor] | Potency (HEK293) 29.9 µM [inhibitor, single point] | Potency (HaCat) 0.0596 µM [inhibitor, full curve, poor fit] | Potency (HeLa) 14.1 µM [cytotoxic, partial curve] | Potency (OV90) 28.2 µM [cytotoxic, single point] | Potency (SKOV3) 17.8 µM [cytotoxic, single point]
inactive: max response (NIH3T3) 1.48%

Cc1ccc2c(Br)cc(Br)c(O)c2n1
active: Potency (CRL-7250) 21.1 µM | Potency (HEK293) 8.41 µM | Potency (C33A) 20 µM | Potency (PA-1) 10 µM | Potency (SKOV3) 15.8 µM | Potency (Tov-21-G) 17.8 µM
inconclusive: Potency [1] 3.66 µM [inhibitor, full curve] | Potency (HaCat) 33.5 µM [inhibitor, single point] | Potency (NIH3T3) 26.6 µM [inhibitor, single point] | Potency (CAOV3) 39.8 µM [cytotoxic, single point] | Potency (CASKI) 39.8 µM [cytotoxic, single point] | Potency (Es-2) 22.4 µM [cytotoxic, single point] | Potency (Hek293T) 35.5 µM [cytotoxic, single point] | Potency (JEG-3) 11.2 µM [cytotoxic, partial curve] | Potency (OV90) 31.6 µM [cytotoxic, single point] | Potency (Tov112D) 35.5 µM [cytotoxic, single point]

C[C@]12CCC(=O)C=C1C=C[C@@H]1[C@@H]2CC[C@@]2(C)[C@H]1CC[C@@]21CCC(=O)O1
active: Potency (CRL-7250) 7.5 µM | Potency (HEK293) 9.44 µM
inactive: Potency (CAOV3) | Potency (SKOV3)
inconclusive: Potency [1] 20.6 µM [inhibitor, single point] | Potency [3] 2.66 µM [inhibitor, single point] | Potency [2] 4.22 µM [inhibitor, partial curve, poor fit] | Potency (HaCat) 23.7 µM [inhibitor, partial curve] | Potency (NIH3T3) 8.41 µM [inhibitor, partial curve] | Potency (CASKI) 39.8 µM [cytotoxic, single point]

Cn1cc(-c2cnn3c(N)c(Br)c([C@@H]4CCCNC4)nc23)cn1
inactive: Potency (OV90)
inconclusive: Potency [1] 18.4 µM [inhibitor, partial curve, poor fit] | Potency (CRL-7250) 11.6 µM [inhibitor, partial curve] | Potency (HaCat) 29.1 µM [inhibitor, single point] | Potency (KB-3-1) 23.1 µM [inhibitor, single point] | Potency (Es-2) 2 µM [cytotoxic, full curve] | Potency (HeLa) 14.1 µM [cytotoxic, partial curve] | Potency (Hek293T) 2.24 µM [cytotoxic, full curve, poor fit] | Potency (JEG-3) 11.2 µM [cytotoxic, partial curve] | Potency (PA-1) 7.08 µM [cytotoxic, partial curve] | Potency (SKOV3) 1.12 µM [cytotoxic, full curve, poor fit] | Potency (Tov-21-G) 0.794 µM [cytotoxic, full curve, poor fit]
active: Potency [3] 1.15 µM and 3.72 µM | Potency (HEK293) 1.16 µM
